# Results as given in article PMC12040169 (PLOS Biology, 2025).
# The other results are listed elsewhere or left out.
# Test system: T1, C. trachomatis L2/434/Bu expressing GFP (CTL2-GFP)
# T1 construct: L2/434/Bu GFP intracellular growth in HeLa cells
# Design: species or system HeLa; C. trachomatis total inclusion area by high-content imaging, normalised to DMSO
# Conditions: total inclusion area; 28.5 h, 10 µM; inhibitor
# Method in brief: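 High-content images of fixed, Hoechst-stained infected cultures supply inclusion area and count (growth) plus nuclei number (viability), complementing bulk GFP/resorufin fluorescence. MIC determination is unchanged from the primary assay.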
row,Compound,% of control remaining
1,Cc1ccccc1C1NC(=O)NC2=C1C(=O)N(C)C2 (centres unmarked) [CBK288026],99.2291
2,CCOC(=O)C1=C(CSc2nc3ccccc3[nH]2)NC(=O)NC1c1cccc([N+](=O)[O-])c1 (centres unmarked) [CBK268889],80.52
3,Cc1cc(C2CCCCCN2C(=O)c2cc(C3CC3)on2)on1 (centres unmarked) [CBK285414],106.542
4,CCn1c(C)nnc1CN(CC1CCCO1)C1CCCC1 (centres unmarked) [CBK304181],57.4467
5,COc1cc(-c2cn3ccnc3c(N(C)CCN(C)C)n2)cc(OC)c1OC [CBK066196],127.448
6,CN(C)Cc1ccc2nc(C(F)(F)F)cc(SCCC(=O)O)c2c1 [CBK149715T],84.2245
7,O=C([C@@H]1C[C@@H]2C=C[C@H]1C2)N1CCC(c2noc3cc(F)ccc23)CC1 [CBK281542],113.185
8,CS(=O)(=O)c1ccc(-c2cnc3[nH]c(=O)n(Cc4cccs4)c3n2)cc1 [CBK064383],103.931
9,Cc1csc(C(Cc2ccsc2)NC(=O)C2CCCO2)n1 (centres unmarked) [CBK285122],72.5207
10,Fc1ccc(OCc2ccc(-c3nnn[nH]3)cc2)cc1 [CBK267859],78.1722
11,CCc1cc(Br)ccc1S(=O)(=O)NC(CC)COC (centres unmarked) [CBK045265],35.3399
12,CS(=O)(=O)Nc1ccc(C(=O)Nc2ccc(S(=O)(=O)N3CCCCCC3)cc2)cc1 [CBK268288],96.0507
13,O=C(CSc1nnc(-c2ccncc2)s1)Nc1ccc(Cl)cc1 [CBK270069],83.3856
14,COc1ccccc1N(CC(O)Cn1nc(C)cc1C)S(=O)(=O)c1ccccc1 (centres unmarked) [CBK264546],98.3682
15,CCC1CCCCN1C(=O)c1cc(C)oc1C (centres unmarked) [CBK089358],60.2938
16,CN(C)CCN1CCN(c2cncc(-c3cccc(C(=O)O)c3)n2)CC1 [CBK065443],120.504
17,Cc1ccc(CCC(=O)N2CCNCC2C)c(C)c1 (centres unmarked) [CBK304481],47.6466
18,O=C(O)CC(C(=O)O)c1ccc(F)cc1 (centres unmarked) [CBK268531],106.375
19,O=C(NC1Cc2ccccc2C1)c1cnccc1C(F)(F)F [CBK200353],108.063
20,O=C1c2ccccc2-c2onc3c(NCc4ccccc4)cc(Nc4ccccc4)c1c23 [CBK261979],91.0536
21,Cc1ccc(C(=O)NCCC(=O)Nc2ccccn2)cc1NC(=O)c1ccco1 [CBK298328],118.512
22,c1ccc2c(c1)/C(=N/OCCN1CCCC1)CC21CCCCC1 [CBK013322],68.0249
23,COc1ccc(-c2onc(C)c2-c2cnn(-c3ccccc3)c2)c(O)c1 [CBK296095],113.177
24,O=C(COc1cc(Cl)c(Cl)cc1Cl)N1CCN(c2ccc([N+](=O)[O-])cc2)CC1 [CBK263783],117.738
25,O=c1c2ccccc2nc(CSc2ncnc3[nH]cnc23)n1-c1cccc(C(F)(F)F)c1 [CBK264991],114.429

row,Compound,% of control remaining
1,C=CCn1c(Cc2csc(NC(=O)c3cc4ccccc4o3)n2)n[nH]c1=S [CBK295329],117.07
2,Cc1nnc(-c2cccc(S(=O)(=O)n3ccn(-c4cccc(C(F)(F)F)c4)c3=O)c2)o1 [CBK106592],120.905
3,COc1ccc(C)c(NC(=O)NCCc2c[nH]cn2)c1 [CBK269992],102.931
4,CCn1cc(C(=O)NC2CC3(CCCC3)Oc3ccccc32)c(C)n1 (centres unmarked) [CBK282340],97.1535
5,Cc1nc2c(c(N(C)C)n1)CCN(C(=O)c1cnn(C(C)C)c1)C2 [CBK307083],37.2798
6,CC(CCc1ccccc1)NC(=O)CCC(=O)O (centres unmarked) [CBK267918],103.112
7,COc1ccc(C2N(N3C(=O)CC(=O)NC3=O)C(=O)CS2(=O)=O)cc1OC (centres unmarked) [CBK012702],38.4743
8,CN(Cc1ccccc1NCCn1c(=O)oc2ccccc21)C1CCCCC1 [CBK296678],52.5872
9,N=C(N)NS(=O)(=O)c1ccc(N/C=C\C(=O)c2ccc3ccccc3c2)cc1 [CBK263374],59.9607
10,N=C(Nc1nc(=O)cc(CSc2ccc(Cl)cc2)[nH]1)Nc1cccc2ccccc12 [CBK266504],127.778
11,O=C(O)CNC(=O)Cn1ccc2cc(OCc3ccccc3)ccc21 [CBK286665],81.6031
12,CC(=O)Nc1ccc(-n2cc(COC3CCN(C(=O)OC(C)(C)C)CC3)nn2)cc1 [CBK149481],93.3265
13,CCc1nc2c(Oc3nc4ccccc4s3)cccn2c1N(C=O)Cc1ccc(OC)cc1 [CBK147819],81.4391
14,CN(C)CCN1CCN(c2nc(-c3cccc(C(N)=O)c3)cnc2N)CC1 [CBK063537],79.4887
15,O=C(O)CCC(=O)Nc1ccccc1C(=O)N1CCCCCC1 [CBK269863],124.978
16,Cc1cc(CNC(=O)COc2cc(Cl)ccc2Cl)c2ccccc2n1 [CBK269788],66.4495
17,CC(C)(C)c1ccnc(N[C@H]2CO[C@H]3[C@@H]2OC[C@@H]3NC(=O)c2cccs2)n1 [CBK289520],80.8205
18,COc1ccc(C(=O)Nc2ccc(N3CCOCC3)c(Cl)c2)cc1[N+](=O)[O-] [CBK263894],78.1899
19,Cc1cc(C(=O)N2CCCCCC2c2nn(C)cc2Cl)on1 (centres unmarked) [CBK285121],100.996
20,O=C(OCc1ccc(Br)cc1)c1ccccc1S(=O)(=O)c1ccccc1[N+](=O)[O-] [CBK265718],114.45
21,Cc1cccc(C)c1NC(=O)CSc1nnc(C(O)c2ccccc2)n1C (centres unmarked) [CBK269742],99.6715
22,O=C(CSc1nnc(-c2ccco2)n1-c1ccccc1)NCc1ccc2c(c1)OCO2 [CBK267308],106.106
23,CC(C)(C)c1cc(NC(=O)C(C)(C)S(=O)(=O)c2ccc(C(F)(F)F)cn2)no1 [CBK006849],82.2313
24,COc1ccc(F)c(CNCCNC(=O)OC(C)(C)C)c1 [CBK056699],88.7493
25,COc1cccc(CN2CCOC3(CCN(C(=O)OCc4ccccc4)CC3)C2)c1 [CBK161098T],114.305
